Measured values from PubChem BioAssay AID1345083 (National Center for Advancing Translational Sciences (NCATS), 2018).
About 6,200 (6.6%) of roughly 94,000 compounds were called active. The inconclusive results got no clear call from the source; some entries with a clear call stand among them for comparison. Calls follow the shape of the dose curve; as a rule, active = well fitted inhibition curve with a large enough effect; inconclusive = small, poorly fitted or top-dose-only effect; inactive = flat fitted curve, though single readings scatter. Where the call is inconclusive, the potency comes from a doubtful curve fit.

assay: Cytotoxic Profiling in HEK 293 Cell Line of Diverse Libraries Using Quantitative High-Throughput Screening; conditions: HEK 293 viability, ATP luminescence (CellTiter-Glo), 48-72 h; activity change, negative = cytotoxicity: at 115 µM (top of the series) unless noted; series mostly up to 115 µM; also: nearly all actives have a fitted effect of over 60% in size
Summary of the method: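 Read-out: CellTiter-Glo ATP luminescence. Cells: HEK 293, 250 cells/well. Exposure: 48 or 72 hr, 37 degree Celsius.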
% is scaled to controls: 0 for no effect and ±100 for the full control effect; potency is read from the fitted curve at half-maximal effect; tags tell the direction and shape of the fitted curve.

Row | SMILES | Potency | activity change, negative = cytotoxicity
1 | COc1cccc(C(=O)Nc2ccc3c(c2)CN(Cc2ccc(F)cc2)C(=O)C(C)O3)c1 (stereo unspecified) | inconclusive: 35.5 µM [inhibitor, full curve] | –
2 | COc1ccc(-c2noc(CC3CCN(C(=O)c4cc(F)cc(F)c4)CC3)n2)cc1 | inconclusive: 17.8 µM [inhibitor, partial curve, poor fit] | –
3 | COc1ccc(-n2nc(C3CCCN(Cc4cccc5ccccc45)C3)[nH]c2=O)cc1 (stereo unspecified) | inconclusive: 50.1 µM [inhibitor, partial curve, poor fit] | –
4 | COc1ccc(-c2ccccc2C=O)cc1 | inconclusive: 112 µM [inhibitor, partial curve] | –
5 | O=C(c1cn2ccsc2n1)N1CCC2(CCNCC2)CC1 | – | inactive: -8%
6 | CC1=NS(=O)(=O)N(Cc2ccccc2)C=C1C(=O)OCc1noc(C2CCCC2)n1 | inconclusive: 39.8 µM [inhibitor, partial curve] | –
7 | COc1ccc(-c2ccc3c(c2)C(=O)N2CC[C@H](NC(=O)CSC)[C@H]2C(=O)N3)cc1 | inconclusive: 7.94 µM [inhibitor, full curve, poor fit] | –
8 | O=C(CCC1CCCC1)Nc1cccc(-c2nnc3n2CCCC3)c1 | inconclusive: 79.4 µM [inhibitor, single point] | –
9 | Cc1noc(C)c1[S+](=O)([O-])N1CCn2cc(C(=O)Nc3ccc(Cl)cc3Cl)nc2C1 | inconclusive: 112 µM [inhibitor, partial curve, poor fit] | –
10 | COc1cccc(C(O)c2nc(C(=O)Nc3ccc4c(c3)OCC(=O)N4)c(C)o2)c1 (stereo unspecified) | inconclusive: 39.8 µM [inhibitor, full curve] | –
11 | CCOc1ccc(NC(=O)c2cc3n(n2)CC(c2ccc4c(c2)OCO4)OC3)cc1 (stereo unspecified) | active: 22.4 µM | –
12 | CN(C)C(=O)NC1CCCN(c2ccc3nnc(-c4ccccc4)n3n2)C1 (stereo unspecified) | inconclusive: 79.4 µM [inhibitor, partial curve, poor fit] | –
13 | COCCOCC(=O)N1CCCC(c2nc(-c3cccnc3)no2)CCNC(=O)CC1 (stereo unspecified) | – | inactive: -1.25%
14 | O=C(N[C@@H]1CN(Cc2cccc(F)c2)C[C@H]1CO)c1ccccc1 | active: 7.08 µM | –
15 | CN1c2cc(C(=O)NCc3cccc(F)c3)ccc2C(=O)N2CCCCC21 (stereo unspecified) | inconclusive: 89.1 µM [inhibitor, single point] | –
16 | CN(Cc1ccnn1C)C1CCOc2ccccc21 (stereo unspecified) | inconclusive: 100 µM [inhibitor, partial curve, poor fit] | –
17 | Cc1ccc(Cn2ccn3nc(-c4ccccc4)c(CO)c3c2=O)cc1 | inconclusive: 89.1 µM [inhibitor, single point] | –
18 | CCN1C(=O)CCN(C(=O)COCCOC)CC12CCOCC2 | – | inactive: -5.11%
19 | COc1ccc2[nH]c3c(c2c1)CCNC31CCN(C(=O)c2c(C)noc2C)CC1 | inconclusive: 50.1 µM [inhibitor, partial curve, poor fit] | –
20 | Cc1nn(-c2ccccc2)c2c1C(C(C)C)N(C1CCN(C(=O)Cc3cccc(Cl)c3)C1)C2=O (stereo unspecified) | active: 44.7 µM | –
21 | Cc1noc2c(NC(C)C)cc(-c3ccc(Cl)cc3)nc12 | inconclusive: 100 µM [inhibitor, partial curve] | –
22 | CC(=O)N1CC(CO)C2(CCN(C(=O)c3ccccc3Cl)CC2)C1 (stereo unspecified) | – | inactive: 1.95%

Row | SMILES | Potency | activity change, negative = cytotoxicity
23 | Cc1cc2nc3n(c(=O)c2n1CC(=O)Nc1ccc(F)c(Cl)c1)CCCC3 | inconclusive: 35.5 µM [inhibitor, full curve, poor fit] | –
24 | CCc1ccc(C(=O)N2CCC(C3CCNC3)CC2)cc1 (stereo unspecified) | – | inactive: -26.5%
25 | CCNC[C@H]1O[C@H](Cc2cc(-c3ccc(F)cc3)on2)CC[C@@H]1O | inconclusive: 112 µM [inhibitor, partial curve, poor fit] | –
26 | COc1ccccc1-c1cccc(C(=O)N2CCC[C@H]2C(=O)N(C)C)c1 | – | inactive: -0.487%
27 | CN1CCC(NC(=O)C2(C)CN(Cc3ccccc3)Cc3ccc(Nc4ccccc4)nc32)CC1 (stereo unspecified) | active: 17.8 µM | –
28 | CCCC(O)CN1CCC(=O)N(C)Cc2cc(F)ccc21 (stereo unspecified) | inconclusive: 89.1 µM [inhibitor, single point] | –
29 | Cn1cc(CNc2ccc(-c3nc(-c4cccc(C(F)(F)F)c4)no3)cn2)cn1 | active: 25.1 µM | –
30 | CC1(C)C(=O)NC(=O)N1CC(=O)N1CCCC(CCc2c(F)cccc2F)C1 (stereo unspecified) | – | inactive: -31.7%
31 | Cc1ccc(C2=NC3(CCN(C(=O)COc4ccc(F)cc4)CC3)ON2)cc1 | – | inactive: -29.6%
32 | COCc1nncn1C1CCN(S(=O)(=O)c2ccc(Br)s2)CC1 | inconclusive: 39.8 µM [inhibitor, partial curve] | –
33 | Fc1ccccc1OCC1CCCN(c2nccc(-c3cccnc3)n2)C1 (stereo unspecified) | inconclusive: 50.1 µM [inhibitor, partial curve, poor fit] | –
34 | CC(=O)c1ccc(NC(=O)O[C@@H]2CO[C@H]3[C@@H]2OC[C@@H]3NC(=O)C2CC2)cc1 | – | inactive: -5.94% [at 172 µM]
35 | Cc1ccc(CN2CC3(Cc4ccccc4C(=O)N3)C2)cc1 | inconclusive: 112 µM [inhibitor, partial curve, poor fit] | –
36 | O=C(NC1CCCN(c2cc(-c3ccccc3)[nH]n2)C1)c1ccccc1 (stereo unspecified) | inconclusive: 39.8 µM [inhibitor, full curve] | –
37 | CC[C@H]1CN(S(=O)(=O)c2ccccc2)CC[C@H]1CC(=O)NCc1cccnc1 | inconclusive: 56.2 µM [inhibitor, partial curve, poor fit] | –
38 | O[C@@H]1C[C@@H](c2nc(-c3ccccc3)no2)N(Cc2ccccc2)C1 | – | inactive: -13.5% [at 172 µM]
39 | O=C(C1CCCC1)N1CC2(CCN(CC3CC3)C2)Cc2ccccc21 (stereo unspecified) | active: 25.1 µM | –
40 | N#Cc1cccc(NC(=O)N2C[C@@H]3C[C@H](C2)c2ccc(-c4ccc(OC(F)(F)F)cc4)c(=O)n2C3)c1 | inconclusive: 17.8 µM [inhibitor, full curve, poor fit] | –
41 | Cc1ccc(NC(=O)Nc2ccccc2)c(=O)n1CC(=O)NC1CCCCC1 | – | inactive: -9.01%
42 | CN(CCC1CCCCO1)C(=O)Cn1ccc2ccccc2c1=O (stereo unspecified) | – | inactive: -11.4%
43 | CN1C[C@H](NCc2ccc(F)cc2)CCC[C@@H](C(=O)N(C)Cc2cccnc2)CC1=O | inconclusive: 70.8 µM [inhibitor, partial curve, poor fit] | –
44 | Cc1ccccc1-c1cn(C)c(=O)n2cc(CNc3ccccc3)nc12 | inconclusive: 100 µM [inhibitor, partial curve] | –

Row | SMILES | Potency | activity change, negative = cytotoxicity
45 | COc1ccc(CC(=O)N[C@H]2C[C@@H](c3nc(-c4ccc(OC(F)(F)F)cc4)no3)N(C)C2)cc1 | active: 35.5 µM | –
46 | O=C(c1cccnc1)N1CCC2(CC1)OCCN(Cc1ccccc1)C2=O | inconclusive: 89.1 µM [inhibitor, partial curve, poor fit] | –
47 | COc1ccc(-c2cc(N3CCC(NC(=O)c4cc(C)ccc4C)C3)n[nH]2)cc1 (stereo unspecified) | inconclusive: 50.1 µM [inhibitor, partial curve, poor fit] | –
48 | O=C(NCCc1ccc(Cl)cc1)c1cc(-c2cc(Cl)cc(Cl)c2)c2cccn2n1 | – | inactive: -20%
49 | O=C(NCc1ccccc1F)c1nc2sccn2c1-c1ccncc1 | inconclusive: 50.1 µM [inhibitor, partial curve, poor fit] | –
50 | COc1cccc(C(=O)N2CCN(c3cc(-c4ccc(F)cc4)[nH]n3)CC2)c1OC | inconclusive: 56.2 µM [inhibitor, partial curve, poor fit] | –
51 | COC[C@@H]1[C@H](C(=O)NCCc2nc3ccccc3n2C)CCCN1C | – | inactive: -32%
52 | CNC(=O)CCc1ccc2c(c1)CN(C(C)=O)CCO2 | – | inactive: -4.49%
53 | COc1cc(CN2CCC(C)(NC(C)=O)CC2)cc(-c2ccccc2)c1 | inconclusive: 100 µM [inhibitor, partial curve, poor fit] | –
54 | CC(C)n1c(C2CCCN(C(=O)CCc3ccccc3)C2)nn(C)c1=O (stereo unspecified) | inconclusive: 79.4 µM [inhibitor, single point] | –
55 | CS(=O)(=O)CCN1CCN(C(=O)c2cccc(-c3ncc[nH]3)c2)CC1 | – | inactive: -15.2%
56 | Cc1ccc(C(=O)N2CCn3c(nn(-c4ccncc4)c3=O)C2)cc1 | inconclusive: 39.8 µM [inhibitor, partial curve] | –
57 | CCCN1CCN(C(=O)c2cc(NC(=O)C3CCC3)cc3nc(C)ccc23)CC1 | – | inactive: -3.16%
58 | Cc1nn(-c2ccc(F)cc2)c(Oc2ccccc2)c1CCC(=O)NCC1CC1 | inconclusive: 50.1 µM [inhibitor, partial curve, poor fit] | –
59 | Cc1nc(C)c(C(=O)N2CC(Oc3ccccc3-c3nc(C4CC4)no3)C2)s1 | active: 89.1 µM | –
60 | CCN(Cc1ccncc1)C(=O)CC(c1ccccc1)c1ccc2c(c1)OCO2 (stereo unspecified) | inconclusive: 56.2 µM [inhibitor, partial curve, poor fit] | –
61 | O=C(C1CCN(c2nc(-c3ccccc3)nc3c2CCC3)CC1)N1CCC[C@H]1CO | inconclusive: 35.5 µM [inhibitor, partial curve] | –
62 | Cn1cnc(S(=O)(=O)N2CCCCCCNC(=O)[C@@H]3CCC[C@@H]32)c1 | – | inactive: -10.7%
63 | Cc1ccc(CN2CC[C@@H]3[C@H]2C(=O)NC[C@H](CCC(=O)N2CCN(c4ccccn4)CC2)N3C)cc1 | inconclusive: 79.4 µM [inhibitor, partial curve] | –
64 | O=C(O)CC1CCCCN(Cc2ccccc2)C1=O (stereo unspecified) | – | inactive: -18%
65 | O=C(c1ccc(C(F)(F)F)cc1)N1CCc2nc(-c3ccccc3)nc(-c3ccc(Cl)cc3)c2C1 | inconclusive: 50.1 µM [inhibitor, partial curve, poor fit] | –
66 | C[C@H]1[C@@H]2[C@@H](O)C([C@H](C)C(=O)NCc3ccc(F)cc3)CC[C@@]2(C)CC[C@@H]1NC(=O)c1ccccc1 (stereo partly specified) | active: 39.8 µM | –
